In the supplement of paper PMC4604168 (melanoma cell lines):
Some of the results follow. Repeats are few or missing, and single values can be far off.

Tested on: WM1745
Assay: cell count relative to DMSO control; melanoma cells; higher = more viable cells
Settings: library dose: standard library concentration; 72 h
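Note: cells treated in 1,536-well plates, then fixed and DAPI-stained, with nuclei counted from automated high-throughput microscope images.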

Question: How did the cell count turn out when `O=C(CCCCCCC(=O)Nc1ccccc1)NO` [vorinostat] + O=S(=O)(c1ccccc1)N(CC(F)(F)F)c1ccc(C(O)(C(F)(F)F)C(F)(F)F)cc1 [T0901317] (first compound 0.4 µM, partner dose 7 µM) was run?
Answer: The cell count was 72.2%.

Question: `Nc1cccc2c1CN(C1CCC(=O)NC1=O)C2=O` (centres undefined) [lenalidomide] + Cn1cncc1[C@@](N)(c1ccc(Cl)cc1)c1ccc2c(c1)c(-c1cccc(Cl)c1)cc(=O)n2C [tipifarnib] (first compound 5 µM, partner dose 0.05 µM) was tested. Which cell count did it give?
Answer: Its cell count is 62.3%.

Question: For `COCC[n+]1c2c(n(Cc3cnccn3)c1C)C(=O)c1ccccc1C2=O` + Cn1cncc1[C@@](N)(c1ccc(Cl)cc1)c1ccc2c(c1)c(-c1cccc(Cl)c1)cc(=O)n2C [tipifarnib] (first compound 0.002 µM, partner dose 0.05 µM), which cell count is on record?
Answer: Its cell count is 117%.

Question: Which cell count does the source give for `Cn1c(Nc2ccc(C(F)(F)F)cc2)nc2cc(Oc3ccnc(-c4ncc(C(F)(F)F)[nH]4)c3)ccc21` + Oc1nc(-c2ccc(C(F)(F)F)cc2)nc2c1CSCC2 [XAV939] (first compound 0.4 µM, partner dose 10 µM) here?
Answer: Its cell count is 43%.

Question: How did the cell count turn out when `Clc1ccc(Nc2nnc(Cc3ccncc3)c3ccccc23)cc1` [vatalanib] + C=CCn1c(=O)c2cnc(Nc3ccc(N4CCN(C)CC4)cc3)nc2n1-c1cccc(C(C)(C)O)n1 [MK1775] (first compound 10 µM, partner dose 0.1 µM) was run?
Answer: The cell count was 45.8%.

Question: With `OCc1c[nH]c2ccccc12` [Indole-3-carbinol] + C[C@@H]1CCN(C(=O)CC#N)C[C@@H]1N(C)c1ncnc2[nH]ccc12 [CP690550] (first compound 4 µM, partner dose 5 µM) as the compound, how does the cell count read?
Answer: Its cell count is 77.5%.

Question: How did the cell count turn out when `Cn1c(Nc2ccc(C(F)(F)F)cc2)nc2cc(Oc3ccnc(-c4ncc(C(F)(F)F)[nH]4)c3)ccc21` + Nc1cccc2c1CN(C1CCC(=O)NC1=O)C2=O [lenalidomide] (first compound 0.4 µM, partner dose 5 µM) was run?
Answer: The cell count was 52.5%.

Question: With `COCC[n+]1c2c(n(Cc3cnccn3)c1C)C(=O)c1ccccc1C2=O` + O=C(O)C(=O)Nc1sc2c(c1C(=O)O)CCNC2 [TCS401] (first compound 0.002 µM, partner dose 8.33333 µM) as the compound, how does the cell count read?
Answer: Its cell count is 65.6%.

Question: With `C#Cc1cccc(Nc2ncnc3cc(OCCOC)c(OCCOC)cc23)c1` [erlotinib] + O=C(Nc1cccc(Cl)c1)Nc1ncc(CCNc2ncnc3ccsc23)s1 [SNS314] (first compound 4 µM, partner dose 0.004 µM) as the compound, how does the cell count read?
Answer: Its cell count is 35.2%.

Question: `Cn1c(Nc2ccc(C(F)(F)F)cc2)nc2cc(Oc3ccnc(-c4ncc(C(F)(F)F)[nH]4)c3)ccc21` + COc1ccc2c(c1)CCC1C2CCC2(C)C(NCCCCCCN3C(=O)C=CC3=O)CCC12 [U73122] (first compound 0.4 µM, partner dose 2 µM) was tested. Which cell count did it give?
Answer: Its cell count is 51.4%.

Question: For `Nc1cccc2c1CN(C1CCC(=O)NC1=O)C2=O` (centres undefined) [lenalidomide] + O=S(=O)(c1ccccc1)N(CC(F)(F)F)c1ccc(C(O)(C(F)(F)F)C(F)(F)F)cc1 [T0901317] (first compound 5 µM, partner dose 7 µM), which cell count is on record?
Answer: Its cell count is 79.7%.

Question: For `OCc1c[nH]c2ccccc12` [Indole-3-carbinol] + O=C(CCCCCCC(=O)Nc1ccccc1)NO [vorinostat] (first compound 4 µM, partner dose 0.4 µM), which cell count is on record?
Answer: The cell count was 73.2%.

Question: With `Nc1cccc2c1CN(C1CCC(=O)NC1=O)C2=O` (centres undefined) [lenalidomide] + COc1ccc(COc2ccc(Cc3cnc(N)nc3N)cc2OC)cc1 [GW2580] (first compound 5 µM, partner dose 5 µM) as the compound, how does the cell count read?
Answer: The cell count was 74.1%.

Question: With `C#Cc1cccc(Nc2ncnc3cc(OCCOC)c(OCCOC)cc23)c1` [erlotinib] + COc1cc2ncnc(Nc3ccc(Oc4ccccc4)cc3)c2cc1OC [SrcI1] (first compound 4 µM, partner dose 10 µM) as the compound, how does the cell count read?
Answer: The cell count was 41.5%.

Question: Which cell count does the source give for `OCc1c[nH]c2ccccc12` [Indole-3-carbinol] + CC1(C)NC(=O)N(c2ccc([N+](=O)[O-])c(C(F)(F)F)c2)C1=O [nilutamide] (first compound 4 µM, partner dose 5 µM) here?
Answer: The cell count was 102%.

Question: For `OCc1c[nH]c2ccccc12` [Indole-3-carbinol] + CN(NC(=O)CC(=O)NN(C)C(=S)c1ccccc1)C(=S)c1ccccc1 [STA4783] (first compound 4 µM, partner dose 0.03 µM), which cell count is on record?
Answer: Its cell count is 18.6%.

Question: Which cell count does the source give for `Clc1ccc(Nc2nnc(Cc3ccncc3)c3ccccc23)cc1` [vatalanib] + Cc1cc(N2CCOCC2)cc2[nH]c(-c3c(NC[C@@H](O)c4cccc(Cl)c4)cc[nH]c3=O)nc12 [BMS536924] (first compound 10 µM, partner dose 1 µM) here?
Answer: Its cell count is 63%.

Question: Which cell count does the source give for `O=C(CCCCCCC(=O)Nc1ccccc1)NO` [vorinostat] + O=C(O)C(=O)Nc1sc2c(c1C(=O)O)CCNC2 [TCS401] (first compound 0.4 µM, partner dose 8.33333 µM) here?
Answer: The cell count was 75.5%.

Question: With `Nc1cccc2c1CN(C1CCC(=O)NC1=O)C2=O` (centres undefined) [lenalidomide] + CN(C)S(=O)(=O)c1ccc2c(c1)/C(=C/c1cc3c([nH]1)CCCC3)C(=O)N2 [SU6656] (first compound 5 µM, partner dose 2 µM) as the compound, how does the cell count read?
Answer: The cell count was 75.8%.

Question: With `Nc1cccc2c1CN(C1CCC(=O)NC1=O)C2=O` (centres undefined) [lenalidomide] + COC(=O)c1sccc1S(=O)(=O)Nc1ccc(Nc2ccccc2)cc1OC [GSK0660] (first compound 5 µM, partner dose 5 µM) as the compound, how does the cell count read?
Answer: Its cell count is 113%.

Question: With `Nc1cccc2c1CN(C1CCC(=O)NC1=O)C2=O` (centres undefined) [lenalidomide] + N#Cc1c(O)c2c(-c3ccc(-c4ccccc4O)cc3)csc2[nH]c1=O [A769662] (first compound 5 µM, partner dose 10 µM) as the compound, how does the cell count read?
Answer: Its cell count is 89.8%.

Question: With `COCC[n+]1c2c(n(Cc3cnccn3)c1C)C(=O)c1ccccc1C2=O` + COc1ccc(COc2ccc(Cc3cnc(N)nc3N)cc2OC)cc1 [GW2580] (first compound 0.002 µM, partner dose 5 µM) as the compound, how does the cell count read?
Answer: Its cell count is 72.9%.

Question: `Cn1c(Nc2ccc(C(F)(F)F)cc2)nc2cc(Oc3ccnc(-c4ncc(C(F)(F)F)[nH]4)c3)ccc21` + Cc1cc(N2CCOCC2)cc2[nH]c(-c3c(NC[C@@H](O)c4cccc(Cl)c4)cc[nH]c3=O)nc12 [BMS536924] (first compound 0.4 µM, partner dose 1 µM) was tested. Which cell count did it give?
Answer: The cell count was 31.6%.

Question: Which cell count does the source give for `COCC[n+]1c2c(n(Cc3cnccn3)c1C)C(=O)c1ccccc1C2=O` + Oc1cc(-c2nc(-c3ccccc3)[nH]c2-c2ccncc2)ccc1Cl [L779450] (first compound 0.002 µM, partner dose 1 µM) here?
Answer: Its cell count is 58.5%.

Question: Which cell count does the source give for `C#Cc1cccc(Nc2ncnc3cc(OCCOC)c(OCCOC)cc23)c1` [erlotinib] + O=C1NC(=O)/C(=C/c2ccc(-c3ccc(F)cc3O)o2)S1 [AS252424] (first compound 4 µM, partner dose 5 µM) here?
Answer: The cell count was 46.5%.

Question: How did the cell count turn out when `Cn1c(Nc2ccc(C(F)(F)F)cc2)nc2cc(Oc3ccnc(-c4ncc(C(F)(F)F)[nH]4)c3)ccc21` + NCC(=O)Nc1ccc(-n2nc(C(F)(F)F)cc2-c2ccc3c(ccc4ccccc43)c2)cc1 [OSU03012] (first compound 0.4 µM, partner dose 5 µM) was run?
Answer: Its cell count is 66.2%.

Question: How did the cell count turn out when `C#Cc1cccc(Nc2ncnc3cc(OCCOC)c(OCCOC)cc23)c1` [erlotinib] + COc1ccc2c(c1)CCC1C2CCC2(C)C(NCCCCCCN3C(=O)C=CC3=O)CCC12 [U73122] (first compound 4 µM, partner dose 2 µM) was run?
Answer: Its cell count is 40.7%.

Question: For `Clc1ccc(Nc2nnc(Cc3ccncc3)c3ccccc23)cc1` [vatalanib] + OCCn1cc(-c2cnc3nnn(Cc4ccc5ncccc5c4)c3n2)cn1 [PF04217903] (first compound 10 µM, partner dose 5 µM), which cell count is on record?
Answer: Its cell count is 48.1%.

Question: For `Nc1cccc2c1CN(C1CCC(=O)NC1=O)C2=O` (centres undefined) [lenalidomide] + COc1ccc(-c2ccc3c(N4CCOCC4)nc(N4C[C@@H](C)O[C@@H](C)C4)nc3n2)cc1CO [KU0063794] (first compound 5 µM, partner dose 0.1 µM), which cell count is on record?
Answer: The cell count was 68.6%.

Question: Which cell count does the source give for `O=C(CCCCCCC(=O)Nc1ccccc1)NO` [vorinostat] + C[C@@H]1CCN(C(=O)CC#N)C[C@@H]1N(C)c1ncnc2[nH]ccc12 [CP690550] (first compound 0.4 µM, partner dose 5 µM) here?
Answer: Its cell count is 84.8%.

Question: How did the cell count turn out when `COCC[n+]1c2c(n(Cc3cnccn3)c1C)C(=O)c1ccccc1C2=O` + N#Cc1c(O)c2c(-c3ccc(-c4ccccc4O)cc3)csc2[nH]c1=O [A769662] (first compound 0.002 µM, partner dose 10 µM) was run?
Answer: Its cell count is 98.7%.

Question: `Nc1cccc2c1CN(C1CCC(=O)NC1=O)C2=O` (centres undefined) [lenalidomide] + O=C(Nc1ccccc1)c1cc([N+](=O)[O-])ccc1Cl [GW9662] (first compound 5 µM, partner dose 10 µM) was tested. Which cell count did it give?
Answer: Its cell count is 97.8%.

Question: `O=C(CCCCCCC(=O)Nc1ccccc1)NO` [vorinostat] + CC(C)CCN1c2nc(Nc3cc(F)c(O)c(F)c3)ncc2N(C)C(=O)C1C [BID1870] (first compound 0.4 µM, partner dose 1 µM) was tested. Which cell count did it give?
Answer: The cell count was 102%.

Question: With `OCc1c[nH]c2ccccc12` [Indole-3-carbinol] + COCC[n+]1c2c(n(Cc3cnccn3)c1C)C(=O)c1ccccc1C2=O [YM155] (first compound 4 µM, partner dose 0.002 µM) as the compound, how does the cell count read?
Answer: Its cell count is 90.7%.
